Reference: the supplement of paper PMC3334620
Whole data set: some 33,000 sequences, median “E-score (-0.5 to 0.5)” near -0.016, cut for the highest 2% near 0.31. The list shows a part of the results.

molecular target: Cst6 (UniProt P40535); assay: PBM E-score (8-mer binding enrichment) (E-score (-0.5 to 0.5)); higher = stronger / more preferred TF binding; most listed sequences are background and not binding sites; settings: protein concentration: 200 nM; construct: GST-DNA-binding domain
Procedure: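 Universal 'all 10-mer' protein binding microarrays (Agilent AMADID 015681) probed with GST-tagged S. cerevisiae TFs (full-length or DBD) made by in vitro transcription/translation (PURExpress), about 100-200 nM. Bound TF was detected with fluorescent anti-GST. Each ungapped 8-mer (which stands for itself and its reverse complement) is scored by the PBM enrichment score (E-score), a modified Wilcoxon-Mann-Whitney statistic from -0.5 to +0.5, computed with the Universal PBM Analysis Suite. Scale: above 0.35 generally sequence-specific binding.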

Row | Sequence | PBM E-score
1 | CACGTCTC | -0.097
2 | ATAAACCG | 0.0517
3 | CTAATGCA | 0.186
4 | ACCCTTTC | -0.0516
5 | ACAGACGC | -0.104
6 | GAACGTGA | 0.0338
7 | GCCTCGTA | 0.204
8 | CACCTGCA | -0.114
9 | GTAGCCGA | -0.191
10 | CATGCTAA | 0.00082
11 | GACGCTCC | -0.102
12 | GAATCACC | 0.0583
13 | GTATCGCA | -0.116
14 | CGGGACCG | -0.291
15 | ACTAGACT | -0.218
16 | AGTGTCAA | 0.141
17 | CAGATATC | -0.0267
18 | ACGGTGCC | 0.116
19 | ACAAAGTC | -0.126
20 | CCGCTGAC | 0.065
21 | AGTGAAAA | 0.162
22 | ACCTAGGT | -0.287

Row | Sequence | PBM E-score
23 | CCCGCACG | -0.0726
24 | CAGGTTTA | -0.0603
25 | ATGAGAAA | 0.167
26 | TAAGACGA | -0.0639
27 | AGCGATGA | 0.146
28 | AATAAGCC | -0.0423
29 | ACTGGTCT | -0.225
30 | CGCAGTTA | 0.0733
31 | CCGCCTGA | -0.113
32 | ATGAGCAT | 0.174
33 | CCAGGCCC | -0.323
34 | ATTGCCCC | -0.136
35 | CCTACTAC | -0.106
36 | ACATCACA | 0.328
37 | GCGTCAGA | 0.313
38 | GCCGATTA | 0.0737
39 | AACTACTA | 0.12
40 | CAGAGTGG | -0.131
41 | AGAAACAG | 0.0873
42 | AGACGCCT | -0.0063
43 | GATTACCA | 0.0453
44 | AAAGTAGT | 0.13

Row | Sequence | PBM E-score
45 | CATTAGGG | -0.144
46 | ACGTAGTG | 0.142
47 | TCAATCGA | 0.249
48 | ATCCCAAA | 0.0214
49 | ATCAAAAG | 0.142
50 | AAGACGCC | -0.00396
51 | CTAATATA | 0.302
52 | AGGCCAGG | -0.308
53 | CTGTCAAG | -0.12
54 | GCTTTACC | 0.0079
55 | CCTCAAAA | 0.0169
56 | CTGACAAG | 0.0332
57 | GGAACCCC | -0.368
58 | GGCCTACC | -0.282
59 | TAACTGGA | -0.0202
60 | GCCGTGCA | 0.279
61 | CCTCGTAC | -0.0456
62 | AACTTTTA | 0.247
63 | ATGAGTAC | 0.0463
64 | CCTAGGTC | -0.201
65 | CCTCTTAA | 0.124
66 | CATTGCTA | 0.185

Row | Sequence | PBM E-score
67 | CCACTACA | 0.0554
68 | AGGGAGAA | -0.16
69 | CAACCAAA | 0.0452
70 | AACTCTAC | -0.156
71 | ACAAGTAG | -0.24
72 | CGTAAGTA | 0.262
73 | AGATAAGC | 0.0952
74 | CCCAAAGG | -0.172
75 | CTCACATC | 0.0865
76 | AGTAAGCC | -0.121
77 | ATTTCGCA | 0.0702
78 | AAGGTCTG | -0.159
79 | CCAATTCG | 0.0572
80 | AACCGCCG | 0.1
81 | AACAGGAC | 0.0447
82 | AGACAATG | 0.028
83 | CATATATA | 0.272
84 | GAGCTACA | -0.194
85 | AGGGACCC | -0.304
86 | CCTGAGAC | -0.303
87 | ACGATCGG | -0.127
88 | CGCCGTTC | 0.228

Row | Sequence | PBM E-score
89 | TCCTTTCA | 0.119
90 | AGTAAAGC | 0.0858
91 | AGGTGTCC | -0.165
92 | AAGAAAGT | 0.153
93 | GGTCATCA | 0.247
94 | ACTCACGC | 0.0424
95 | CATCGTAA | 0.206
96 | ACTCTATA | 0.0999
97 | GTGCAATA | 0.0163
98 | AAATGCGC | 0.0552
99 | GACCCATA | -0.0639
100 | GATAATGA | 0.189
101 | AACCGTTA | -0.0371
102 | ATCGACTA | -0.0453
103 | TATCAGCA | 0.052
104 | CAAGATGA | 0.0421
105 | ACCCAAGG | -0.00867
106 | TAACGGGA | -0.0596
107 | ACGGAACT | 0.063
108 | AGAGATCA | -0.0737
109 | CTGTAATC | -0.0108
110 | ATCGAAAT | 0.129
